According to PubChem BioAssay AID360 (National Center for Advancing Translational Sciences (NCATS), 2006):
The campaign covered roughly 48,000 compounds. About 550 (1.1%) were called active. Inconclusive results (about 4%) are left out. Rule as the data show it: active = potency below about 15 µM; inconclusive = mostly about 16 µM to 33 µM; inactive = weaker than that. This is one part of the list.

molecular target: Lysosomal acid glucosylceramidase (Homo sapiens) (UniProt P04062); assay: Glucocerebrosidase; conditions: purified enzyme, resorufin glucoside fluorescence (screen aimed at inhibitors), 20 min;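 also: the screen sought inhibitors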
UniProt P04062, sequence (P04062 whole entry, looked up): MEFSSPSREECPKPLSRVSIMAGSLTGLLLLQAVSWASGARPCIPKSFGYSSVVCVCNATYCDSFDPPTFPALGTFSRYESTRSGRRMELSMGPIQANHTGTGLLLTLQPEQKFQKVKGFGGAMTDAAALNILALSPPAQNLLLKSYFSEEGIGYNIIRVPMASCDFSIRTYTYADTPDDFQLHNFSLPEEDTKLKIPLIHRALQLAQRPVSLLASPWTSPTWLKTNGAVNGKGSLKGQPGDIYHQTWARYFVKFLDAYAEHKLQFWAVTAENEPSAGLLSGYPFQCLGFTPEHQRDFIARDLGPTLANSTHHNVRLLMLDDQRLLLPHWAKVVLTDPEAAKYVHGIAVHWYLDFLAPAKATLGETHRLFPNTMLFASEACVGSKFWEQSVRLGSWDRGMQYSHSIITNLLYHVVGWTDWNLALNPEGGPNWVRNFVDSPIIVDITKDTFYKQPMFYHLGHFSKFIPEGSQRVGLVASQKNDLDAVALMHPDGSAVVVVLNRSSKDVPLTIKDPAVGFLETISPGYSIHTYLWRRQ
Outline: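 Wild-type enzyme at 0.2 nM final in 50mM citric acid/KH2PO4, 10mM sodium taurocholate, 0.01% tween-20, pH 5.9, with resorufin beta-D-glucopyranoside at 30 uM final. Compounds titrated, 20 min at RT, red fluorescence read; AC50 from titration.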
Potency is read from the fitted curve at half-maximal effect.

Potency, inactive:
CCc1cc(Br)ccc1NC(=O)C1CCCO1 (stereo not given) > 76.9 µM
O=C1CC(Sc2nnnn2C2CCCCC2)C(=O)N1c1ccccc1 (stereo not given) > 76.9 µM
O=C(C1CCCN(S(=O)(=O)c2ccccc2)C1)N1CCN(c2ncccn2)CC1 (stereo not given) > 76.9 µM
Fc1ccccc1CCNc1nnnn1-c1ccccc1 > 15.4 µM
CC(=O)c1cccc(NC(=O)NC(C)c2ccncc2)c1 (stereo not given) > 76.9 µM
COCCNC(=O)CSc1nc2cc(OC)c(OC)cc2c(=O)n1Cc1ccc(OC)cc1 > 76.9 µM
COc1ccc(N2CCN(C(=O)CSc3nnc4ncccn34)CC2)cc1 > 76.9 µM
O=C(CSc1nnc(-c2ccccc2)o1)Nn1cnnc1 > 76.9 µM
O=C1CCCc2c1nc(-c1ccco1)n2O > 76.9 µM
CCN(Cc1ccccc1)C(=O)C1CCN(Cc2ccc(OC)c(OC)c2OC)CC1 > 76.9 µM
CCOC(=O)c1[nH]c(C)c(C(=O)N(C)Cc2ccccc2)c1C > 76.9 µM
Cc1nnc(Sc2nc3c(c(=O)n(C)c(=O)n3C)n2Cc2ccc(Cl)cc2)s1 > 76.9 µM
COc1ccccc1N1CCN(C(=O)CSc2nnc(NC(=O)C3CCC3)s2)CC1 > 76.9 µM
O=C(Nc1cccc(C(F)(F)F)c1)c1cccnc1N1CCCC1
CCN(CC)CCNC(=O)CS(=O)Cc1nc(-c2ccccc2Cl)oc1C (stereo not given) > 76.9 µM
OCc1n[nH]c(CO)n1 > 76.9 µM
O=C(NC1CCN(C(=O)N2c3ccccc3Sc3ccccc32)CC1)c1ccco1 > 76.9 µM
Cc1ccccc1NC(=O)CCC(=O)OCCCC(F)(F)C(F)(F)F > 76.9 µM
Cc1nc(N2CCN(c3ccccc3)CC2)[nH]c(=O)c1Cc1ccccc1 > 76.9 µM
CC(=O)n1cc(C2C(=O)CCCC2=O)c2ccccc21 > 76.9 µM
Cc1ccc(S(=O)(=O)NCCC(=O)OCn2nnc3ccccc3c2=O)cc1 > 76.9 µM
COC(=O)CSc1nnc(CSc2nc(C)cc(C)n2)n1Cc1ccco1 > 76.9 µM
Cc1onc(-c2ccccc2Cl)c1C(=O)Nc1cccnc1 > 76.9 µM
COC(=O)Nc1cc(C)nc2ccccc12 > 76.9 µM
CC(C)C(c1nnnn1Cc1ccc2c(c1)OCO2)N1CCN(c2ccccc2)CC1 (stereo not given) > 76.9 µM
Cc1cc(NC(=O)Cc2ccccc2)no1 > 76.9 µM
CCOc1cc(C2C3=C(CCCC3=O)NC3=C2C(=O)CCC3)cc(Cl)c1O > 76.9 µM
Cc1nnc(NC(=O)CSc2nnc(-c3ccc(S(=O)(=O)N4CCCC4)cc3)n2C)s1 > 76.9 µM
CCOC(=O)NC1(C(F)(F)F)C(=O)N(Cc2ccccn2)C2=C1C(=O)CC(C)(C)C2 (stereo not given) > 76.9 µM
CCOC(=O)c1sc2nc(CC(=O)OC)nc(NCCN3CCOCC3)c2c1C
Cc1cc(NC(=O)c2cc(-c3ccccn3)nc3ccccc23)no1 > 76.9 µM
CCOC(=O)Cc1csc(NC(=O)CSc2ncnc3c2cnn3-c2ccccc2Cl)n1 > 76.9 µM
CCCn1nc2ccccc2c1P(=N)(N1CCOCC1)N1CCOCC1 > 76.9 µM
O=c1c2cccnc2[nH]c(=S)n1CCC1=CCCCC1 > 76.9 µM
COc1ccc(S(=O)(=O)N2CCCC(C(=O)N3CCN(C)CC3)C2)cc1C (stereo not given) > 76.9 µM
Cc1c(N=Cc2ccc(Cl)o2)c(=O)n(-c2ccccc2)n1C > 76.9 µM
COc1ccc(-n2c(N3CCN(C)CC3)nc3sc4c(c3c2=O)CCCCC4)cc1 > 76.9 µM
Cc1cc(C)c2cc(CN(Cc3nnnn3C3CCCCC3)CC3CCCO3)c(=O)[nH]c2c1 (stereo not given) > 76.9 µM
CC1(C)NC(=O)N(CCOc2cccc(Cl)c2Cl)C1=O > 76.9 µM
CC(=O)c1ccc(OC(C)C)c(CN2CCCCC2)c1 > 76.9 µM
CCOc1ccc(NS(=O)(=O)c2ccc3c(c2)oc(=O)n3C)cc1 > 76.9 µM
CCOC(=O)c1cnc(SCc2nc(N)nc(Nc3ccc(F)cc3)n2)nc1N > 76.9 µM
Cc1cccc(-n2c(O)c(C=Nc3c(C)n(C)n(-c4ccccc4)c3=O)c3ccccc3c2=O)n1 > 76.9 µM
O=C(NCc1nc2ncc(Br)cc2[nH]1)c1ccccc1 > 76.9 µM
COc1ccc(S(=O)(=O)N2CCCC2C(=O)Nc2ccc(C)cc2)cc1 (stereo not given) > 76.9 µM
CC(C)Nc1nnc(SCC(=O)Nc2ccc(F)cc2)s1 > 76.9 µM
N#CC1=C(N)NC(SCC(=O)O)=C(C#N)C12CCCC2 > 76.9 µM
O=C(NCCN1CCCC1)C1CCN(S(=O)(=O)N2CCC3(CC2)OCCO3)CC1 > 76.9 µM
Cn1c(-c2ccccc2)cnc1SCC(=O)NCc1ccco1 > 76.9 µM
COc1cc(C(=O)OCC(=O)c2cc(C)n(C)c2C)cc(OC)c1OC > 76.9 µM
COCCn1c(Sc2nc(C)cs2)nc2c1c(=O)[nH]c(=O)n2C > 76.9 µM
CCN(CC)c1ccc(NC(=O)c2ccc(NC(=O)C3CCCO3)cc2)c(C)c1 (stereo not given)
N#CCCN(CCC#N)c1nncs1 > 76.9 µM
CN(C)C(=O)CSc1nnc(C23CC4CC(CC(C4)C2)C3)o1 > 76.9 µM
Cc1oc(C(=O)O)cc1CSc1nnc(-c2ccccc2)n1C > 76.9 µM
CCCN(c1ccc(OCC)cc1)S(=O)(=O)c1ccc2c(c1)CCN2C(=O)CCC(=O)O > 76.9 µM
c1ccc(-n2c(SCC3CCCCO3)nnc2-c2cccs2)cc1 (stereo not given) > 76.9 µM
O=C(Nc1cc(C(F)(F)F)ccc1N1CCCC1)c1ccc2c(c1)OCO2 > 76.9 µM
COC(=O)CSC1=C(C#N)C(c2ccc(C)cc2)C2=C(CCCC2=O)N1 (stereo not given) > 76.9 µM
CCOc1cc2[nH]c(=S)n(CC3CCCO3)c(=O)c2cc1OCC (stereo not given) > 76.9 µM
Cc1cc(NC(=O)c2noc3c2CCCCC3)nn1Cc1ccc(Cl)cc1 > 76.9 µM
CCN1c2ccccc2-c2nc3ccccc3n2C1c1ccccn1 (stereo not given) > 76.9 µM
CC(=O)NS(=O)(=O)c1ccc(NC(=O)CCC2CCCC2)cc1 > 76.9 µM
CC12CCC(C(=O)NCc3cccnc3)(OC1=O)C2(C)C (stereo not given) > 76.9 µM
c1cncc(-c2nn3cnnc3s2)c1 > 76.9 µM
COc1cc(OC)c(C2N(c3cc(C)on3)C(=O)C3CCCN32)cc1OC (stereo not given) > 76.9 µM
O=C(Cn1nnc(-c2ccccc2)n1)c1ccccc1 > 76.9 µM
CCCn1c(SCC(=O)Nc2cccc(C(=O)OC)c2)nnc1-c1cccnc1 > 76.9 µM
CCOc1ccc(-c2nnc3ccc(SCc4ccc(C(=O)OC)o4)nn23)cc1 > 76.9 µM
O=C(Cc1ccc(F)cc1)N(c1ccc(F)cc1)C1C=CS(=O)(=O)C1 (stereo not given) > 76.9 µM
O=C(c1ccco1)N1CCN(C(=O)C2CCN(S(=O)(=O)c3cnc[nH]3)CC2)CC1 > 76.9 µM
CCn1c(SCc2nc(-c3ccc(OC)c(OC)c3)no2)nnc1-c1cccs1 > 76.9 µM
CCCOc1ccccc1C(=O)N(Cc1cccs1)C1CCS(=O)(=O)C1 (stereo not given) > 76.9 µM
COc1cc(C2NC(=O)NC(O)(C(F)(F)F)C2C(C)=O)cc(OC)c1OC (stereo not given) > 76.9 µM
COn1c(=O)c(-c2ccc(Cl)cc2)[n+]([O-])c2ccccc21 > 76.9 µM
COCC(=O)n1nc(-c2ccccc2)nc1NCc1ccc(F)cc1 > 76.9 µM
CC(=O)Nc1ccc(-c2ccccc2)s1 > 76.9 µM
CCc1nnc(NC(=O)C2CCCN(c3nc4ccccc4s3)C2)s1 (stereo not given) > 76.9 µM
COc1cc(OC)cc(C(=O)Nc2ncc3c(n2)CC(C)CC3=O)c1 (stereo not given) > 76.9 µM
O=c1cc(CN2CCc3ccccc32)nc2sccn12 > 76.9 µM
O=C(c1ccc(S(=O)(=O)Nc2ccccc2)cc1)N1CCOCC1 > 76.9 µM
c1c2c(cc3sc(N4CCOCC4)nc13)OCO2 > 76.9 µM
CCOC(=O)Cc1nnc(NC(=O)c2ccccc2OC)s1 > 76.9 µM
CCN(CC)C(=O)N1CCC(NC(=O)Cc2ccccc2)CC1 > 76.9 µM
CCN(Cc1ccccc1)S(=O)(=O)c1ccc(C(=O)Nc2nnc(-c3ccccc3OC)o2)cc1 > 76.9 µM
CCOC(=O)c1cnc2nc(Cc3ccccc3)[nH]n2c1=O > 76.9 µM
CCc1nnc(NC(=O)CCC(=O)N2CCN(CCc3ccccc3)CC2)s1 > 76.9 µM
Cc1c(O)nc(SC2CC(=O)N(c3ccccc3)C2=O)[nH]c1=O (stereo not given) > 76.9 µM
CC1CC(C)CN(c2nc3c(c(=O)[nH]c(=O)n3C)n2CCCSc2nc3ccccc3s2)C1 (stereo not given) > 76.9 µM
O=C(CN1CCN(S(=O)(=O)c2ccc(F)cc2)CC1)Nc1ccc(Cl)c(C(F)(F)F)c1 > 76.9 µM
